# Laboratory results as given in the supplement of paper PMC12645437, “Orthogonal IMiD-Degron Pairs Induce Selective Protein Degradation in Cells” (ACS Chemical Biology, 2025).
# Some of the results follow.
# Biological target: no compound (DMSO)
# Test: log2 fold change of degron read counts, EGFP-low vs EGFP+ sorted cells; higher = lower degron-EGFP level without compound (poor expression or instability)
# Conditions: compound: DMSO control; 18 h
# 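Note: jurkat cells carrying a lentiviral library of mutant zinc finger degrons fused to EGFP plus mCherry, mCherry+ cells FACS sorted, degron abundance counted by next-generation sequencing.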
row,Sequence,log2 fold change of degron read counts
1,FGCNICGAVFTQKGNLLRHIKL,0.0956
2,FFCSVCGHDFTQKGNLLRHIKL,-0.265
3,LICPICGFKCTQKGNLLRHIKL,0.254
4,FDCNICGADFTQKGNLLRHIKL,-0.5
5,LYCPICGFTCTQKGNLLRHIKL,0.825
6,FLCEICGATFTQKGNLLRHIKL,-2.09
7,FQCPVCGAFFTQKGNLLRHIKL,-0.103
8,FTCNVCGAGFTQKGNLLRHIKL,-1.03
9,FYCDICGANFTQKGNLLRHIKL,-1.28
10,FVCEICGHTFTQKGNLLRHIKL,-1.5
11,FNCPICGREFTQKGNLLRHIKL,-0.911
12,FDCEVCGAEFTQKGNLLRHIKL,-2.41
13,FTCEICGHVFTQKGNLLRHIKL,-0.986
14,LYCNQCGFFCTQKGNLLRHIKL,2.11
15,FTCNICGAQFTQKGNLLRHIKL,-1.18
16,FFCNVCGAVFTQKGNLLRHIKL,0.86

row,Sequence,log2 fold change of degron read counts
1,FYCNQCGAWFTQKGNLLRHIKL,1.45
2,FACPICGRLFTQKGNLLRHIKL,-0.089
3,FNCEVCGALFTQKGNLLRHIKL,-1.19
4,LMCEICGFVCTQKGNLLRHIKL,0.353
5,FHCPICGHAFTQKGNLLRHIKL,-0.619
6,FVCEQCGAPFTQKGNLLRHIKL,-2.46
7,FWCNICGAIFTQKGNLLRHIKL,1.74
8,FICPVCGAGFTQKGNLLRHIKL,-0.0235
9,FDCPVCGACFTQKGNLLRHIKL,-0.433
10,FGCNQCGAGFTQKGNLLRHIKL,-0.299
11,FICNQCGRIFTQKGNLLRHIKL,0.844
12,FHCDQCGAWFTQKGNLLRHIKL,-0.613
13,LKCEICGFDCTQKGNLLRHIKL,-0.0149
14,FCCNQCGAAFTQKGNLLRHIKL,0.00643
15,FWCPICGHYFTQKGNLLRHIKL,1.86
16,FVCPQCGASFTQKGNLLRHIKL,-1.26
